The source gives no read counts; variants with many changes may rest on few reads.

This passage reports self-cleavage results from the RNAGym collection of RNA variant scans (doi:10.7554/elife.90254).

To fix the notation:
B1: LINE1-mini (parent)
chain: GGCAGAGCUCAACACAGCGUGGCAAAGUGGCUGUGGCUAGACUGCC

The variants in this data set derive from B1. Briefly: self-cleavage, relative activity (ratio to wild type); higher = more cleavage; in vitro, sequencing; the parent is a self-cleaving ribozyme.
For G17A C18U U38G, the self-cleavage is 0.02.
Then A16G G21C G22C G27A G44C, with 0.02; and G17A U43C C46A, with 0.04.
On to G17A A25U U34A, for which the self-cleavage is 0.16.
Under A16G U28A A41C stands 0.09; under G17A G19U G30A G44U, 0.07.
For the variant A16U G17C C18G, the self-cleavage is 0.12.
Turning to G17A G21C A25G G40C, the self-cleavage came to 0.03.
For the variant G17A G27C A39G, the self-cleavage was determined as 0.07.
For A16G U28G C37U A39G, the self-cleavage was found to be 0.
Regarding A16U A24C G33C G40C, the self-cleavage was found to be 0.02.
Turning to A16U G19C U28A G36A, the self-cleavage amounted to 0.06.
Under A16G U20G U34A G40U stands 0.02.
For the variant G17A G22U C23U U32G A39C G40C C45A, the self-cleavage amounted to 0.01.
A16U G30C G33U U38A A41C: the self-cleavage was 0.03.
For G17C A24G G44U, the self-cleavage is 0.
G17A G21A G30C: the self-cleavage was 0.07.
Then G17A C18U C23A A41U, with 0.02; and G17A C18A C46A, with 0.03; and G17A C18G A39G A41U, with 0.04.
In the case of G17A G35A C42G, the self-cleavage was determined as 0.01.
For A16U C18A U38G C42A, the self-cleavage came out at 0.03.
For the variant A16U C31G U43C C45U, the self-cleavage was found to be 0.03.
As for A16U U28G C45A, the self-cleavage stood at 0.02.
As for G17A C23U U38A G40C, the self-cleavage came out at 0.
For A16U A24U G36C C45A, the self-cleavage turned out to be 0.02.
In the case of G17A U28G G40U, the self-cleavage is 0.11.
For G17A G35A G40A, the self-cleavage is 0.03.
Then G17C A24G C37U, with 0.08.
On to A16U G19U U34C, for which the self-cleavage is 0.01.
G17A G19U G35A A39U G40U: the self-cleavage amounted to 0.
Under A16U G29A U32G stands 1.41; under A16U G30C C37G, 0.03.
In the case of A16U G22U G33C C37U G40U, the self-cleavage was 0.02.
On to A16G G27C U28C, for which the self-cleavage was found to be 1.04.
Under A16G G30U U32C stands 0.19.
For A16U G27C G40A, the self-cleavage is 0.06.
G17A U32A G40A U43G: the self-cleavage turned out to be 0.03.
As for G17A U20A G35U, the self-cleavage was 0.08.
As for G17A C23U A24G G27C, the self-cleavage is 0.26.
For G17A U32G G36U, the self-cleavage was 0.01.
For the variant A16G G36A G40A U43C, the self-cleavage amounted to 0.08.
Then G17A G36U C45A, with 0.15; and G17A G36U C45G, with 0.
Under G17A A26U U28G stands 0.08; under A16U C18G U43C, 0.01.
A16U C18G A25U: the self-cleavage was found to be 0.03.
Regarding G17A G19A A24U, the self-cleavage came out at 2.2.
Turning to G17A G29A C37A, the self-cleavage came to 0.19.
Consider A16G G22U C23G C45A, for which the self-cleavage worked out at 0.36.
With A16U G19A G27U, the self-cleavage was 0.14.
In the case of A16G G19U G27A U28G G30U C31U, the self-cleavage stood at 0.13.
Take G17A G21C G36U: the self-cleavage turned out to be 0.11.
Turning to A16U G36A U43C, the self-cleavage was found to be 0.88.
On to A16U U28A G30A, for which the self-cleavage is 0.1.
As to G17A U20G U28G, the self-cleavage worked out at 0.02.
Then A16U G33U G40U, with 0.1.
For the variant A16U G22U C46U, the self-cleavage is 0.08.
As for G17A G21A G22U C46U, the self-cleavage was found to be 0.13.
Take A16U G22U A39G: the self-cleavage was determined as 0.
As to A16G G21U C45U, the self-cleavage came to 0.57.
Under A16G G27U U28C G36U U43G stands 0; under G17C A41C C45G, 0.03; under A16G U34A C45U, 0.
Then G17A G22C G36U, with 0.18; and A16U G17C G22A, with 0.38; and A16U U32A C42A, with 0.07.
With A16U C18A C31U G35A, the self-cleavage came out at 0.
G17A A25C G40U: the self-cleavage is 0.09.
For A16U C23A A24G G35C A39U, the self-cleavage was 0.
Regarding A16G G27U C45G, the self-cleavage is 0.02.
Turning to A16U C23G G30C, the self-cleavage worked out at 0.02.
Take G17C A25C G27A C42U: the self-cleavage amounted to 0.11.
For the variant G17A G30C C37G, the self-cleavage was 0.05.
For the variant A16G G27C G30C, the self-cleavage worked out at 0.84.
A16U U32G G44U C45G: the self-cleavage worked out at 0.04.
A16G G21U A41G: the self-cleavage stood at 0.03.
For A16U G19C A41C, the self-cleavage came out at 0.
Then G17A U20A G30C U43C, with 0.04.
As for A16U G36C C42A, the self-cleavage was determined as 0.03.
For A16U U20A G22C, the self-cleavage worked out at 0.1.
Regarding A16U C18A U20A C31A, the self-cleavage was determined as 0.03.
Consider G17A G35A A41G, for which the self-cleavage is 0.03.
With G17C A25G U28G, the self-cleavage came to 0.06.
Under A16U C31G A39G stands 0.04; under A16U G21C U28A, 0.21; under G17C A25G A26C G30A G36U, 0.04.
Turning to G17C C18G U38G, the self-cleavage turned out to be 0.06.
A16G U28A U34G: the self-cleavage stood at 0.16.
For the variant G17A G22A A41G, the self-cleavage is 0.03.
With A16U A25G G35U, the self-cleavage was 0.03.
Consider A16G G44C C45U, for which the self-cleavage worked out at 0.05.
With G17A G35A U38A C45U, the self-cleavage worked out at 0.02.
Under A16U C18U G36C stands 0.03; under A16G G21U A24C G44U, 0.04.
For G17A C23A A24U A39G G44C C46A, the self-cleavage amounted to 0.01.
In the case of G17A A26C C42A, the self-cleavage was found to be 0.04.
Then A16U A25U A26C G30C C31G U38G, with 0.01; and A16U G19U U28C C31G G35A, with 0.14.
With G17A A26U G40C, the self-cleavage was determined as 0.03.
Then G17A G29U C42U C45U, with 0.04; and A16U G17A C31G, with 0.03.
In the case of A16U A26G U43A, the self-cleavage came out at 0.
A16G G22A C37U U38A G44C: the self-cleavage worked out at 0.06.
As to A16U A24G G35C, the self-cleavage worked out at 0.02.
As for A16U C18U G22U C45U, the self-cleavage turned out to be 0.03.
For A16G G30C G36A A39U, the self-cleavage is 0.08.
Then A16U C18U G21U G27U G40U, with 0.06.
In the case of G17A C18G G19A U28G, the self-cleavage turned out to be 0.09.
Turning to G17A C31U U34C, the self-cleavage stood at 0.07.
Consider A16U G30C C42A, for which the self-cleavage was 0.02.
With G17A G33C C46A, the self-cleavage came to 0.
In the case of A16G G35U G40U, the self-cleavage was 0.03.
As to A16U C42G G44A, the self-cleavage amounted to 0.02.
As for G17A C18U G33U G40C, the self-cleavage is 0.1.
With A16U U32C C42A, the self-cleavage turned out to be 0.03.
In the case of A16G G35C C46A, the self-cleavage turned out to be 0.04.
Consider A16U G21U C23U, for which the self-cleavage was determined as 0.17.
On to A16U A41G C45U, for which the self-cleavage was 0.09.
In the case of G17A G19C G35A, the self-cleavage worked out at 0.04.
As to G17A U20C G21C G33A U43A C45G, the self-cleavage stood at 0.02.
Take A16U G21U G22C C31A G35U: the self-cleavage stood at 0.02.
With A16G G21U G27U C37A, the self-cleavage worked out at 0.03.
For G17A G22U C23A A24G, the self-cleavage stood at 0.07.
Under G17A G19A U20G A24U C31A C46U stands 0.02; under A16U G22C C31A G36A, 0.05.
As for A16U U28C C46G, the self-cleavage was 0.03.
With A16G U20A G35U, the self-cleavage is 0.05.
Then G17A G19C G33C, with 0.03; and A16U A25U G35U G40U, with 0.03.
Turning to G17A G22U A24C G36C, the self-cleavage worked out at 0.02.
Then A16G G21U G27C C37G, with 0.02; and A16U G22A G29U, with 0.11; and A16G G21U U28G U32A, with 0.06.
In the case of G17A A26U U43G C46U, the self-cleavage came to 0.08.
Consider G17A C18U G44U C46A, for which the self-cleavage stood at 0.01.
Under A16U A25C U32C C37G stands 0.01.
As for G17A G19C U20A, the self-cleavage amounted to 0.37.
Take A16U U28C G36U: the self-cleavage is 0.09.
As to A16U U38G G44C, the self-cleavage is 0.04.
On to G17A G33C U38A U43C, for which the self-cleavage worked out at 0.03.
Under A16U G27A G36U U43G stands 0.02; under A16G G22C U28C, 0.07; under A16U G19C U32G A39C, 0.02.
As to A16G U28G G30A G44A, the self-cleavage came to 0.01.
For the variant G17A G21U U34A, the self-cleavage came to 0.04.
Under G17A U28G U34C stands 0.03.
For A16U G19U U43C, the self-cleavage amounted to 0.01.
Then G17A C18G G21U G36C U38C, with 0; and G17C C18A G22U, with 0.27; and A16G U20C A39G, with 0.02.
Under A16U G19C U38G C42U C45A stands 0.01; under A16G G22U U38A G40C, 0.01.
Then G17A G19C U32C, with 0.03.
Take A16U C23G G27C: the self-cleavage was 1.07.
Turning to G17A A26C G33C, the self-cleavage was determined as 0.05.
Under G17A A41U U43C G44C stands 0.02.
For A16G G44A C45U, the self-cleavage amounted to 0.04.
Consider G17A G35U G36C, for which the self-cleavage is 0.05.
Under A16G G21U G35U stands 0.06.
Turning to G17A G22C G30C G33C C45U, the self-cleavage is 0.01.
As for G17A G22C A26U U28C, the self-cleavage amounted to 1.27.
For the variant A16G G29C G44U, the self-cleavage is 0.2.
A16U A26G G40C: the self-cleavage was found to be 0.03.
On to G17A G30A G40A C45U, for which the self-cleavage is 0.05.
For A16G U20C G21U G30C, the self-cleavage is 0.11.
Then A16G U38C C46U, with 0.18.
